Source: PubChem BioAssay AID686978 (National Center for Advancing Translational Sciences (NCATS), 2013)
The campaign covered roughly 420,000 compounds. About 64,000 (15%) were called active. Inconclusive results, whose numbers are uncertain, are shown with a selection of clear calls. Calls come from the whole dose curve; as a rule, active = well fitted inhibition curve with a large enough effect; inconclusive = small, poorly fitted or top-dose-only effect; inactive = flat fitted curve, though single readings scatter. No potency is given beside an inconclusive call; the fits are too rough.

Assay: qHTS for Inhibitors of human tyrosyl-DNA phosphodiesterase 1 (TDP1): qHTS in cells in absence of CPT; note: nearly all actives have a fitted effect of over 55% in size
Settings: DT40 Tdp1-/- hTDP1 cells, no CPT, ATP luminescence, 48 h; activity change, negative = growth inhibition: at 46.2 µM (top of the series) unless noted
Summary of the method: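 Luminescent ATP content (CellTiter-Glo) served as the growth readout. Knockout chicken DT40 cells expressing human TDP1 were exposed to compounds without camptothecin for a minimum 48 hr at 37 °C.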
% is set by controls: 0 for no effect and ±100 for the full control effect; potency is the fitted concentration of half-maximal effect; tags give direction and shape of the fitted curve.

Q: Which Potency does the source give for `O=C(CN1CCN(C(=O)c2ccco2)CC1)Nc1cc(C(F)(F)F)ccc1Cl` here?
A: active: 23.1 µM

Q: For `CCCn1c2ccccc2c2cnn(CC(=O)NCCCN3CCN(c4ccccc4)CC3)c(=O)c21`, which Potency is on record?
A: active: 20.6 µM

Q: For `COc1ccc(NC(=O)c2cccnn2)cc1`, which “activity change, negative = growth inhibition” value is on record?
A: inactive: -9.77%

Q: Which activity change, negative = growth inhibition does the source give for `CCOC(=O)CNC(=O)c1sc(NC(=O)c2ccccc2F)nc1C` here?
A: inconclusive: -33.1% [inhibitor]

Q: Which Potency does the source give for `COc1ccc(CC(N)c2csc(NC(=O)NCCc3ccc(OC)c(OC)c3)n2)cc1` (stereo not given) here?
A: inconclusive [inhibitor, single point]

Q: With `Cc1ccc(CC(=O)N2CCN(c3ccccc3F)CC2)cc1` as the molecule, how does the Potency read?
A: inconclusive [inhibitor, single point]

Q: Which Potency does the source give for `N#CC1=C(N)NC(SCC(=O)Nc2ccc(Br)cc2)=C(C#N)C12CCCCC2` here?
A: inconclusive [inhibitor, single point]

Q: With `CCOC(=O)c1cc2c(=O)n3ccccc3nc2n(CC2CCCO2)c1=NC(=O)c1ccc(F)cc1` (stereo not given) as the molecule, how does the “activity change, negative = growth inhibition” value read?
A: inactive: 3.95%

Q: Which Potency does the source give for `O=C(NCc1cccc(F)c1)c1ccc2nc(CCc3ccccc3)oc2c1` here?
A: inconclusive [inhibitor, single point]

Q: With `CC(C)(C)c1ccc(-c2nnc(SCC(=O)NC3CCS(=O)(=O)C3)n2N)cc1` (stereo not given) as the molecule, how does the “activity change, negative = growth inhibition” value read?
A: inactive: -1.97%

Q: For `CC(C)(C)NS(=O)(=O)c1ccc(NC(=O)c2cc(-c3ccccc3)nc3ccccc23)cc1`, which “activity change, negative = growth inhibition” value is on record?
A: inactive: -0.231%

Q: Which “activity change, negative = growth inhibition” value does the source give for `O=C1N2c3ccccc3CCc3cccc(c32)C1(O)C(F)(F)F` (stereo not given) here?
A: inactive: -23.3%

Q: With `CC(=O)N1N=C(c2ccccc2)CC1c1cccs1` (stereo not given) as the molecule, how does the Potency read?
A: inconclusive [inhibitor, single point]

Q: Which Potency does the source give for `COC(=O)c1ccc(C(=O)Nc2ccc3nc(-c4cccnc4)[nH]c3c2)cc1` here?
A: active: 5.17 µM

Q: With `COc1ccc(-c2nnc(SCC(=O)Oc3cc(C)ccc3C)o2)cc1` as the molecule, how does the “activity change, negative = growth inhibition” value read?
A: inactive: -1.74%

Q: For `COC(=O)CN1C(=O)C(O)(CC(=O)c2ccc(Cl)cc2)c2ccccc21` (stereo not given), which Potency is on record?
A: inconclusive [inhibitor, single point]

Q: Which “activity change, negative = growth inhibition” value does the source give for `Nc1ccccc1NC(=O)CCn1c(=S)[nH]c2ccccc2c1=O` here?
A: inactive: -15.2%

Q: For `COc1cc(C(=O)NC2CCN(C)CC2)ccc1Nc1ncc2c(n1)N(C1CCCC1)CCC(=O)N2C(C)C`, which Potency is on record?
A: active: 16.4 µM

Q: Which “activity change, negative = growth inhibition” value does the source give for `O=C(Nc1ccc(S(=O)(=O)Nc2nccs2)cc1)c1ccc(=O)[nH]c1` here?
A: inactive: 8.58%

Q: For `CC(C)(C)c1nnc(N/N=C/c2ccccc2O)n(N)c1=O`, which Potency is on record?
A: active: 1.03 µM

Q: With `COc1cccc(-c2csc(N3CCN(CC(=O)Nc4ccc5c(c4)OCO5)CC3)n2)c1` as the molecule, how does the Potency read?
A: inconclusive [inhibitor, single point]

Q: For `Cc1ccc(OC(=O)c2ccccc2)cc1C`, which “activity change, negative = growth inhibition” value is on record?
A: inactive: 5.18%

Q: For `COc1ccc(C(=O)NCCNc2nc3cc(C)c(C)cc3cc2C)cc1`, which Potency is on record?
A: inconclusive [inhibitor, partial curve, poor fit]

Q: For `CCCCCNC(=O)c1ccc2c(=O)n(CCc3ccccc3)c(=O)[nH]c2c1`, which “activity change, negative = growth inhibition” value is on record?
A: inactive: -13.5%

Q: With `O=C(Nc1nnc(-c2cccs2)o1)c1cccc(C(F)(F)F)c1` as the molecule, how does the Potency read?
A: active: 5.17 µM

Q: Which Potency does the source give for `CSc1cccc(CN2CCN(CCC(C)C)C(CCO)C2)c1` (stereo not given) here?
A: inconclusive [inhibitor, single point]

Q: For `O=C(CNC(=O)c1ccc(Br)o1)Nc1ncccc1O`, which “activity change, negative = growth inhibition” value is on record?
A: inactive: -15.8%

Q: With `CN(CCOc1ccccc1)C(=O)c1cc([N+](=O)[O-])ccc1N1CCOCC1` as the molecule, how does the activity change, negative = growth inhibition read?
A: inconclusive: -31.6% [inhibitor]

Q: With `CCN(C(=O)c1cccn(Cc2cccc(Cl)c2)c1=O)c1ccccc1` as the molecule, how does the Potency read?
A: inconclusive [inhibitor, partial curve]

Q: With `COc1ccc(CNc2ncnc3c2c(-c2ccccc2)cn3-c2cccc(C)c2)cc1` as the molecule, how does the Potency read?
A: inconclusive [inhibitor, single point]

Q: For `COc1ccc(-c2ccc3c(c2)S(=O)(=O)c2cccc(C(=O)N4CCN(C5CCCCC5)CC4)c2C3=O)cc1OC`, which Potency is on record?
A: inconclusive [inhibitor, single point]

Q: Which Potency does the source give for `CCOc1cccc2sc(N(CCN(C)C)C(=O)c3ccc4ccccc4c3)nc12` here?
A: inconclusive [inhibitor, single point]

Q: For `COC(=O)c1ccc(COc2ccc(Cl)cc2)o1`, which “activity change, negative = growth inhibition” value is on record?
A: inactive: -19.4%

Q: With `NC(=O)c1ccc([N+](=O)[O-])cc1SCc1ccccc1` as the molecule, how does the Potency read?
A: inconclusive [inhibitor, single point]

Q: Which Potency does the source give for `COc1ccccc1/C=C/C1(C(=O)NC2CCCC2)CC(=O)N1c1ccc(F)cc1` (stereo not given) here?
A: inconclusive [inhibitor, single point]

Q: With `O=C(Nc1ccc(Cl)cc1)Nc1nc(-c2ccccc2)cs1` as the molecule, how does the “activity change, negative = growth inhibition” value read?
A: inactive: -19.4%

Q: Which “activity change, negative = growth inhibition” value does the source give for `COc1ccc(CC(=O)N2CCc3cc(OC)c(OC)cc3C2O)cc1OC` (stereo not given) here?
A: inactive: -6.72%

Q: Which “activity change, negative = growth inhibition” value does the source give for `CCOC(=O)/C(C#N)=C\c1ccco1` here?
A: inactive: 1.71%

Q: With `Cc1nn(-c2nnc(C)c(=O)[nH]2)c(C)c1SCC(=O)Nc1ccc(F)cc1` as the molecule, how does the “activity change, negative = growth inhibition” value read?
A: inactive: -4.48%

Q: Which “activity change, negative = growth inhibition” value does the source give for `NC(=O)c1nsc(C(=O)N(CCCN2CCOCC2)C(C(=O)NC2CCCCC2)c2ccc(Cl)cc2)c1N` (stereo not given) here?
A: inactive: 1.3%

Q: With `Cc1ccc(-n2nnnc2SCC(=O)NCC2(N3CCOCC3)CCCCC2)c(C)c1` as the molecule, how does the Potency read?
A: active: 16.4 µM

Q: Which Potency does the source give for `COc1ccc(/C=C/c2c([N+](=O)[O-])c(=O)n(C)c(=O)n2C)cc1O` here?
A: inconclusive [inhibitor, partial curve, poor fit]

Q: Which “activity change, negative = growth inhibition” value does the source give for `CCCCN(C)C(=O)C1CCN(Cc2ccccn2)CC1` here?
A: inactive: -10.8%

Q: With `CC(C)Oc1ccc(CNC(=O)c2ccc3c(c2)N(C)C(=O)C2CCCCN32)cc1` (stereo not given) as the molecule, how does the Potency read?
A: inconclusive [inhibitor, single point]

Q: For `Cc1ccc(C)c(N2C(=O)CS/C2=N\NC(=O)c2ccccc2Cl)c1`, which “activity change, negative = growth inhibition” value is on record?
A: inactive: 18.4%

Q: For `Cc1cc(C)c(C#N)c(SC(F)F)n1`, which “activity change, negative = growth inhibition” value is on record?
A: inactive: 9.11%

Q: With `CCN1CCN(c2cc(C)c3cc(NC(=O)/C=C/c4ccc(OCCC(C)C)cc4)ccc3n2)CC1` as the molecule, how does the Potency read?
A: active: 4.11 µM

Q: Which Potency does the source give for `CCC(C)NS(=O)(=O)c1ccc(OCC(=O)N2CCC(C)CC2)cc1` (stereo not given) here?
A: inconclusive [inhibitor, single point]

Q: For `CC(NC(=O)/C=C/c1ccco1)c1nc2ccccc2n1Cc1ccccc1F` (stereo not given), which Potency is on record?
A: inconclusive [inhibitor, single point]

Q: For `COC(=O)c1[nH]c2ccc(C)cc2c1NC(=O)CN1CCN(C(=O)c2ccccc2)CC1`, which Potency is on record?
A: inconclusive [inhibitor, single point]
